Data on 62 compounds can be found in PubChem BioAssay AID1159614 (National Center for Advancing Translational Sciences (NCATS), 2016).

Among all 45,000 compounds or so, about 65 (0.1%) were called active. The call rests on the fitted dose curve; in most records, active means well fitted activation curve with a large enough effect; inconclusive means small, poorly fitted or top-dose-only effect; inactive means no such curve, though single readings can be large or run the other way. The list shows a part of the results.

For this experiment, the target named is Galactocerebrosidase (Homo sapiens) (UniProt P54803). Description: A Novel Cell-Based Assay to Identify Small Molecules for B -Galactocerebrosidase. Further: 0% is about no effect; nearly all actives have a fitted effect of over 65% in size. The settings on record: 145M-Twi-hGALC-G270D cells (Twitcher mouse brain line with human GALC G270D), HMU-beta-Gal fluorescence, 48 h; series mostly up to 57.5 µM; activation: at the top concentration. In a few lines: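 Brain-derived Twitcher mouse 145M-Twi cells stably expressing human GALC-G270D or wild-type GALC, treated live, then residual GALC activity read by fluorescence of HMU-b-Gal substrate (0.1 mM final) in citrate-phosphate buffer pH 5.2 with sodium taurocholate. Signal increase indicates enhancement.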
Chain of UniProt P54803 (P54803 whole entry, looked up): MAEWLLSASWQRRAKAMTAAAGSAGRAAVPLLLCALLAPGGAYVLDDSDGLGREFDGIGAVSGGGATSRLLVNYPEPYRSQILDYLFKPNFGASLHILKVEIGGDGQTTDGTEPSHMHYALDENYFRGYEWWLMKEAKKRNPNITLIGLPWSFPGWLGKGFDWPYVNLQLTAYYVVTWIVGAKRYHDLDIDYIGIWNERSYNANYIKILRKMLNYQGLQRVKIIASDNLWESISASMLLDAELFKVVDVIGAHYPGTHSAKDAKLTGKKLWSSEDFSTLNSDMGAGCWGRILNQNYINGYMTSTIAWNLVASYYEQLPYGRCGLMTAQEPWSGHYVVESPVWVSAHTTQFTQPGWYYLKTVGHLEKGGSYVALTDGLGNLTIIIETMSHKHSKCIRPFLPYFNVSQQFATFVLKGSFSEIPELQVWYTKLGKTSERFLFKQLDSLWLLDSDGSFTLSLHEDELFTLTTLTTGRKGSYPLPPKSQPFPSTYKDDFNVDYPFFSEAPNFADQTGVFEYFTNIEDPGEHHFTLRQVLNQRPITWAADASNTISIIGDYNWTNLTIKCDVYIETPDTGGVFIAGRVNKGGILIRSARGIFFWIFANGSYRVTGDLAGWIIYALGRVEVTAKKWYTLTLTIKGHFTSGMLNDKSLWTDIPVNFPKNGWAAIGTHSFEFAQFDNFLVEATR
Regarding `Cc1ccc(NC(=O)c2c(NC(=O)c3ccco3)sc3c2CCC(C(C)(C)C)C3)c(C)c1` (configuration not stated), the “activation” value was inactive: 0.77%. For `COC(=O)c1cc(NC(=O)c2oc(=O)c3ccccc3c2-c2ccccc2)cc(C(=O)OC)c1`, the “activation” value is inactive: -13.7%.

In the case of `Cc1ccc(NC(=O)CN2C(=O)CSc3ccc(S(=O)(=O)N4CCCC4)cc32)cc1F`, the “activation” value is inactive: -14%. With `Cc1cc(C)c2oc(-c3cccc(NC(=O)c4ccc(Br)o4)c3)nc2c1`, the “activation” value is inactive: -10.8%. With `Cc1ccccc1Cn1cc(CCC(=O)NC(C)c2ccccc2)c2ccccc21` (configuration not stated) the figure was inactive: -8.86%; with `CCC(C)c1ccc(OCC(=O)Nc2cccc(-c3nc4ncccc4o3)c2)cc1` (configuration not stated), inactive: -4.62%; with `CCOc1ccc(NC(=O)c2oc3ccccc3c2NC(=O)Cc2ccc(F)cc2)cc1`, inactive: -6.19%. With `COc1cccc(-c2cn3c(n2)sc2cc(C(=O)NC4CCCCCC4)ccc23)c1`, the “activation” value is inactive: -7.84%. As for `O=C(Cc1ccc(F)cc1)NC1CC(=O)N(c2ccc3c(c2)OCCO3)C1` (configuration not stated), the “activation” value was inactive: 11.8%.

Consider `O=C(Cn1ncc2c3ccccc3n(Cc3ccc(Cl)cc3)c2c1=O)N1CCCCCC1`, for which the “activation” value is inactive: -9.96%. `COc1ccc(Br)cc1CNC(=O)Cn1c(=O)c2cccn2c2ccc(F)cc21`: the “activation” value was inactive: 1.45%. `Clc1ccccc1N1CCN(c2ncnc3c2c(-c2ccccc2)cn3-c2ccccc2)CC1`: the “activation” value was inactive: -20.2%. Consider `CCN(CC)c1nn2c(=O)c(C(=O)NCc3ccc(OC)cc3OC)cnc2s1`, for which the “activation” value was inactive: -10.6%.

Take `CC(=O)N1c2ccc(S(=O)(=O)NCC3CCC(C(=O)NC(C)(C)C)CC3)cc2CC1C` (configuration not stated): the “activation” value is inactive: -17.3%.

As for `Cc1ccc(S(=O)(=O)N(CC(=O)Nc2ccc(C(C)C)cc2)Cc2ccccc2)cc1`, the “activation” value is inactive: -2.01%. On to `Cc1ccccc1NC(=O)CCC(=O)N1CCSc2ccccc21`, for which the “activation” value is inactive: -3.16%. Regarding `O=C(NCC(c1cccs1)S(=O)(=O)c1cccs1)c1ccccc1F` (configuration not stated), the “activation” value is inactive: -6.89%. On to `O=C(Nc1ccc2c(c1)CCCN2C(=O)c1cccs1)c1cccc(C(F)(F)F)c1`, for which the “activation” value was inactive: 4.92%.

Take `COc1ccccc1CNC(=O)c1ccccc1NC(=O)c1nsc2ccccc12`: the “activation” value is inactive: -14%. For the compound `CCOC(=O)c1[nH]c2ccccc2c1NC(=O)c1ccccc1OCC`, the “activation” value is inactive: -3.54%.

Regarding `Cc1ccc(-n2nc3ccc(NC(=O)c4oc5ccccc5c4C)cc3n2)cc1`, the “activation” value was inactive: -4.11%. On to `Cc1cccc(N2CCN(C(=O)c3cc(S(=O)(=O)N4CCC(C)CC4)cn3C)CC2)c1C`, for which the “activation” value was inactive: -16.2%. For the compound `CC(C)(C)OC(=O)N1CCC(c2c(C(=O)NCCN3CCC(Cc4ccccc4)CC3)cnn2-c2cccc(Cl)c2)CC1`, the “activation” value is inactive: 5.82%.

With `CCN(C(=O)c1noc2c1COc1ccc(C)cc1-2)c1cccc(C)c1`, the “activation” value was inactive: -3.54%. With `O=C(Nc1ccccc1F)c1nc(S(=O)(=O)Cc2ccccc2F)ncc1Cl` the figure was inactive: -3.62%. Turning to `CCOc1ccc(-c2nnc(SCC(=O)NC3CCCC3)nc2-c2ccc(OCC)c(OC)c2)cc1OC`, the “activation” value was inactive: -17.3%. With `Clc1cccc(-n2ncc3c(NC4CCCCC4)ncnc32)c1` the figure was inactive: -5.86%; with `CCOc1ccc(CCNC(=O)C2CCN(c3ncnc4c3nc3n4CCCCC3)CC2)cc1`, inactive: -21.6%; with `CCOC(=O)C1CCN(C(=O)c2cc3ccc4cccnc4c3[nH]2)CC1`, inactive: -11.4%.

For `O=C(NCc1ccc(Cl)cc1)C(=O)NCC(c1cccs1)S(=O)(=O)c1ccc(Cl)cc1` (configuration not stated), the “activation” value is inactive: -6.83%. `O=C(NCCCN1CCN(c2ccccc2)CC1)c1nnc(Cc2c(F)cccc2Cl)o1`: the “activation” value is inactive: -0.775%. Consider `CCCNC(=O)c1ccc2c(c1)N=C(C)c1c(C)ccc(C)c1S2`, for which the “activation” value is inactive: -5.36%. Consider `Cc1nc2c(c(C)c1CCC(=O)N1CCN(c3ccccc3)CC1)c(=O)n(C)c(=O)n2C`, for which the “activation” value was inactive: 1.86%. `COc1ccc(C2C=C(c3ccccc3)Nc3nc(NS(=O)(=O)c4ccccc4)nn32)cc1` (configuration not stated): the “activation” value was inactive: 0.612%.

Take `Cc1cc(C)c(S(=O)(=O)Nc2ccc3oc4c(c3c2)CCCC4)cc1C`: the “activation” value is inactive: -16.2%. Regarding `COCCCNC(=O)c1ccc(CSc2nc3cccnc3n2Cc2ccc(OC)cc2)cc1`, the “activation” value is inactive: -12.5%. Turning to `CCOC(=O)c1ccccc1NC(=O)CSc1c(C)cnc2c1c(=O)n(C)c(=O)n2C`, the “activation” value is inactive: -14.1%. In the case of `CC(CNC(=O)CCn1c(=O)c2cccn2c2ccc(F)cc21)c1ccccc1` (configuration not stated), the “activation” value was inactive: -14.2%. Regarding `Cc1ccc(C)c(Cn2c(=O)n(-c3ccc(Cl)cc3)c(=O)c3c4c(sc32)CCC4)c1`, the “activation” value was inactive: 6.45%. On to `O=C(CCNNC(=O)c1ccncc1)NCc1ccccc1`, for which the “activation” value is inactive: -11.1%. For the compound `O=C(Nc1cccc(Cl)c1Cl)c1cc(S(=O)(=O)N2CCCCC2)ccc1F`, the “activation” value was inactive: -1.17%.

Take `COc1cccc(NC(=O)c2c(-c3ccc(C)cc3)nnc3ccccc23)c1`: the “activation” value was inactive: -8.4%. For the compound `COc1ccc(CCNC(=O)C2CC(=O)N(CCc3ccccc3)C2)cc1OC` (configuration not stated), the “activation” value was inactive: -6.8%. With `CCCN(Cc1cccs1)C(=O)Nc1cc(C)ccc1OC`, the “activation” value is inactive: -10.2%.

`O=C(c1ccc2c(c1)N(Cc1ccc(Cl)cc1)C(=O)c1ccccc1S2(=O)=O)N1CCCCCC1`: the “activation” value was inactive: -2.85%.

Regarding `COc1ccc(OC)c(CNC(=O)C2CCN(S(=O)(=O)N3CCCCC3)CC2)c1`, the “activation” value is inactive: -8.46%. As to `CCc1nn(CC(=O)Nc2ccc(C)c(F)c2)c(=O)c2cc3cc(C)ccc3n12`, the “activation” value was inactive: -1.7%. As for `Cc1ccc(-c2onc(C)c2C)cc1S(=O)(=O)NCc1cccs1`, the “activation” value is inactive: 1.19%. `COc1ccccc1N1CCN(c2nc3ccc(C(=O)c4ccccc4)cc3n3c(C)nnc23)CC1`: the “activation” value is inactive: -13.8%. `CCCCN1CC(c2nc3ccccc3n2CCCCOc2ccccc2C)CC1=O` (configuration not stated): the “activation” value is inactive: -32.2%.

For the compound `COc1ccc(OC)c(S(=O)(=O)NCCc2sc(-c3cccnc3)nc2C)c1`, the “activation” value is inactive: -7.25%.

Turning to `CC(=O)OC1=CN(Cc2ccccc2)S(=O)(=O)c2ccccc21`, the “activation” value was inactive: -11.1%. Turning to `Cc1ccc(N2C(=O)C(CC(=O)Nc3ccc(F)cc3)N(CCC3=CCCCC3)C2=O)cc1` (configuration not stated), the “activation” value is inactive: -22.8%. With `CCOc1ccc(-c2nnc(SCC(=O)Nc3ccccc3C(F)(F)F)o2)cc1` the figure was inactive: -1.37%; with `Cc1cccc(C)c1NC(=O)c1cc(S(N)(=O)=O)c(Cl)cc1O`, inactive: -8.99%. With `CCOc1ccc(S(=O)(=O)NCC(c2ccc(N(C)C)cc2)N2CCCC2)cc1` (configuration not stated) the figure was inactive: -22.5%. As to `Cc1ccc(-c2cn3c(n2)sc2cc(C(=O)NCCC4=CCCCC4)ccc23)c(C)c1`, the “activation” value was inactive: -12.1%. With `COc1ccccc1N1CCN(C2C(=O)c3ccccc3N2C(C)=O)CC1` (configuration not stated) the figure was inactive: -3.1%; with `O=C(COc1ccc(F)cc1)Nc1ccc2nc(SCC(=O)N3CCCC3)sc2c1`, inactive: -2.7%.

As for `COc1cc(OC)c(NS(=O)(=O)c2cc3c(cc2C)NC(=O)CO3)cc1Cl`, the “activation” value is inactive: -12.5%. With `CC(=O)c1ccc(N2CCN(C(=O)C3CCN(S(=O)(=O)c4ccc(Br)s4)CC3)CC2)cc1` the figure was inactive: -15.2%; with `COCCn1c(CNC(=O)c2cccc(N(C)C)c2)nc2cccnc21`, inactive: 2.98%.
